Whole data set: some 16,000 sequences, median “Z-score” near -0.37, cut for the highest 2% near 3.2. The list shows a part of the results.
test system: RBM10 RRM1-ZnF (GST-tagged construct); assay: RNAcompete 7-mer binding Z-score; higher = stronger binding preference
Experimental: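 RNAcompete: 20 pmol GST-tagged RBM10 RNA-binding constructs were incubated with a designed RNA pool of about 241,000 sequences up to 41 nt (1.5 nmol) on glutathione beads for 30 min at 4 °C and washed. Bound RNAs were identified by microarray hybridisation. Each RNA 7-mer is scored by a one-sided Z-score of its enrichment, computed over probes that contain the 7-mer within longer pool sequences.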

Sequence	RNAcompete 7-mer binding Z-score
CGCGAGG	0.738
CUAUCAG	-0.636
ACUUCCC	-0.899
CCACCCU	-0.532
AGAAGAU	0.459
ACCCGUA	-0.821
GAAUUCC	-0.662
UGCUGAG	0.378
GCACACC	-0.435
GAAAGGC	1.7
GUUAGAC	0.264
UGUGAAA	0.082
CAUUUGU	-0.795
CGCUGCA	-0.243
CUACUGU	-0.694
UACUGAA	-0.347
AGUAUAC	-0.259
CGUCAAA	-0.279
ACAGACA	-0.00896
UUCUGGA	-0.311
CUGGAUG	0.53
GCUCUGC	-0.782
UAUAGCC	-0.487

Sequence	RNAcompete 7-mer binding Z-score
GAAAACC	-0.594
AUGGAAC	1.99
CUUUACA	-0.776
UCGCGUA	-0.532
CUGCCCC	-0.292
GCUACGG	0.693
GUAGGCC	0.27
CCGUCUC	-0.688
GAUGCCU	-0.675
ACGCCUA	-0.766
UCUGGGU	0.81
GAUCGAC	-0.457
CUAAAAC	-0.756
UGAGUAC	0.153
AAGCGCG	-0.0479
GUGUAGA	1.5
CAGAGUG	0.923
GAGGACG	1.56
UGUGGGA	2.87
UUGAUUA	-0.314
UGGAGUA	1.67
GUAGACC	0.00729
UUGCAUU	-0.701

Sequence	RNAcompete 7-mer binding Z-score
CUGGGUC	0.751
UGCUCGG	-0.152
CAUGUUA	-0.474
UCGGGGG	2.83
ACUCACU	-0.776
AUGUGCG	0.758
CUGUGCC	-0.571
CGAGUAU	-0.409
GUAGUUU	-0.0479
GAUCACU	-0.581
UCCAGAC	-0.688
GACCAAA	-0.392
GGGGAGU	2.84
CCAGCCA	-0.711
CUAUUGA	-0.565
UGGUCAG	0.722
GACAAAU	-0.282
GCGCCGC	-0.259
UUCCAAA	-0.792
CCAAUCU	-0.802
UAAAGGG	2.85
UAUAGGG	2.69
GUUUGGU	0.755

Sequence	RNAcompete 7-mer binding Z-score
AGUUAUA	-0.295
UUUUUUA	-0.759
GAUCGCA	-0.298
UUACACC	-0.6
UCUAAUC	-0.626
ACGGUAU	0.985
CGUAGAU	-0.158
CCUUCGU	-0.808
GACUUCA	-0.6
GCGUGUC	-0.347
GGAAUGU	1.94
UUCUUAC	-0.763
GACAACU	-0.581
UAGAAAU	-0.262
AGUGCGU	0.29
UUGGGCA	1.09
AUAAGGA	2.08
UCCCGAA	-0.763
UGGCCCA	-0.35
AGCGUGU	0.183
UUUCGAC	-0.802
AACGAUC	-0.607
CGCGAUU	-0.623

Sequence	RNAcompete 7-mer binding Z-score
AUCCCCU	-0.633
AUCGCUA	-0.724
UCUGUGU	-0.633
CAUUAUA	-0.451
CAAGACC	-0.646
UACAUCA	-0.555
UCUCAGA	-0.49
CCGACAC	-0.49
CACGGAU	0.163
CAUUGGC	-0.444
AAGUUCC	-0.724
UGCUGCC	-0.513
GACCUCA	-0.811
AACAUUC	-0.753
AUAUUCC	-0.798
UCUAUCU	-0.646
AUAAUUC	-0.74
UUCGAAC	-0.62
AUUCGGC	-0.412
CAUGCUU	-0.867
CAGAGAU	0.309
GCGCUUU	-0.675
GGACACG	0.998

Sequence	RNAcompete 7-mer binding Z-score
GUCAGAA	0.03
CAUGAGA	-0.201
CGGGGUG	3.76
UGGUCAU	0.225
AGAUUGA	0.235
GCAGGUA	1.48
AGGCUCU	-0.636
UGUCUAG	-0.431
GAAAUGA	0.504
GUUUUGG	1.15
ACUCGUC	-0.701
AGCAAGU	-0.181
CUCGUCA	-0.694
ACAAUAC	-0.48
CCCUGCC	-0.353
GCUUACA	-0.639
UUAAGUU	-0.409
UAAACUG	-0.285
GACUGUC	-0.678
GAACAUG	0.433
GAACAUU	-0.373
AACUGGG	1.96
AGAUACA	-0.49

Sequence	RNAcompete 7-mer binding Z-score
AGGGGAG	2.9
ACGUGGA	2.05
AAGGCCG	0.235
CAUCCGG	-0.269
GUUAUAG	0.251
AUUGGAC	0.852
GUUCCCA	-0.461
CAGCGUU	-0.493
GACGAUG	0.641
AGGGUUG	3.8
GUACAAC	0.0853
AAAAAUU	-0.363
GGCAGGU	1.71
ACCCGGU	-0.415
UGACCGG	-0.0609
GCCUAAU	-0.61
CGUGAAG	0.485
UAUGAUU	-0.347
AGGGGAC	2.18
UCCCUCG	-0.493
AGCAUUC	-0.694
CCGUUAU	-0.746
CAGCCCC	-0.0934

Sequence	RNAcompete 7-mer binding Z-score
GUUCACG	-0.285
GGACUCC	0.0495
AGAUGGG	3.01
CUCAGUU	-0.688
UGGGGUA	3.56
GUAACUA	-0.152
GGCUCCU	-0.477
GUUCUUG	-0.412
GCAUUCU	-0.785
GGGCUUC	0.426
AGUACCC	-0.694
UUUCUGA	-0.672
GCAUAUC	-0.591
GUCAUAA	-0.516
AAGAAUA	-0.165
CUAUUAC	-0.558
GAGUAUC	-0.162
ACCCUCG	-0.707
UACGAUC	-0.402
AUGAGUC	-0.155
CUCCAGC	-0.568
AAUGUUU	-0.392
